SMILES strings stand for the structures. Screen size: about 3,200 compounds; about 110 (3.4%) showed an effect of 50% or more. The list shows a part of the results.

The subject of the assay is T1, V. cholerae SAD30.
T1 construct: SAD30
Details: species or system S. aureus MSSA476 (TSB) or V. cholerae SAD30 (LB); 384-well bacterial growth screen at 25 uM, OD600 relative to DMSO control. Conditions: relative growth, OD600, LB; 25 µM; inhibitor.
On to `C=CC(=O)Nc1cccc(N2CCOCC2)c1` [1-K04, N-[3-(morpholin-4-yl)phenyl]prop-2-enamide], for which the “% of control remaining” value was determined as 97.0105%. For `C=CC(=O)N1CCC(C(=O)NCC(O)c2cccc(Cl)c2)CC1` (centres unmarked) [3-M06, N-[2-(3-chlorophenyl)-2-hydroxyethyl]-1-(prop-2-enoyl)piperidine-4-carboxamide] the value was 95.442%; for `CCOC(=O)C(C#N)=Cc1ccc(N2C(=O)C=CC2=O)cc1` [10-N11, ethyl 2-cyano-3-[4-(2,5-dioxo-2,5-dihydro-1H-pyrrol-1-yl)phenyl]prop-2-enoate], 96.6297%; for `O=C(CCl)N1CCC(Cc2nc(-c3ccc(F)cn3)no2)CC1` [5-K18, 2-chloro-1-(4-{[3-(5-fluoropyridin-2-yl)-1,2,4-oxadiazol-5-yl]methyl}piperidin-1-yl)ethan-1-one], 97.6778%. As to `CC(=O)N(c1ccc(C)c(C)c1)c1nc(C=C(C#N)C(N)=O)cs1` [8-M16, 2-cyano-3-{2-[N-(3,4-dimethylphenyl)acetamido]-1,3-thiazol-4-yl}prop-2-enamide], the “% of control remaining” value was determined as 70.3603%.

As to `CC(Cl)C(=O)Nc1ccc(S(N)(=O)=O)cc1` (centres unmarked) [6-B06, 2-chloro-N-(4-sulfamoylphenyl)propanamide], the “% of control remaining” value was 94.4924%. For `CC(Cl)C(=O)N1CCCC(c2nc(-c3cccc(F)c3)no2)C1` (centres unmarked) [6-N21, 2-chloro-1-{3-[3-(3-fluorophenyl)-1,2,4-oxadiazol-5-yl]piperidin-1-yl}propan-1-one] the value was 83.8752%. `Cc1cccc(C=C(C#N)C(=O)Nc2ccc(F)cc2)c1` [9-I19, 2-cyano-N-(4-fluorophenyl)-3-(3-methylphenyl)prop-2-enamide]: the “% of control remaining” value amounted to 87.8994%. Consider `CN(CCOc1ccc(Cl)cc1)C(=O)CCl` [5-D16, 2-chloro-N-[2-(4-chlorophenoxy)ethyl]-N-methylacetamide], for which the “% of control remaining” value worked out at 80.0252%. `N#Cc1ccccc1N1C(=O)C=CC1=O` [10-B13, 2-(2,5-dioxo-2,5-dihydro-1H-pyrrol-1-yl)benzonitrile]: the “% of control remaining” value amounted to 22.7547%. Consider `Cc1ccccc1-n1c(C)cc(C(=O)CCl)c1C` [10-H20, 2-chloro-1-[2,5-dimethyl-1-(2-methylphenyl)-1H-pyrrol-3-yl]ethan-1-one], for which the “% of control remaining” value came out at 100.526%. The figure for `Cc1ccccc1NC(=O)C(C#N)=Cc1cc(C)n(CC(C)C)c1C` [8-D19, 2-cyano-3-[2,5-dimethyl-1-(2-methylpropyl)-1H-pyrrol-3-yl]-N-(2-methylphenyl)prop-2-enamide] is 70.9041%; for `CCCCNC(=O)C(C#N)=Cc1ccsc1` [9-B13, N-butyl-2-cyano-3-(thiophen-3-yl)prop-2-enamide] it is 75.9347%. Consider `C#CCOc1ccccc1C=C(C#N)C(=O)Nc1ccccc1F` [9-C10, 2-cyano-N-(2-fluorophenyl)-3-[2-(prop-2-yn-1-yloxy)phenyl]prop-2-enamide], for which the “% of control remaining” value was found to be 83.1407%. The figure for `C=CC(=O)N1CCC(C(=O)NCC(C)c2ncc(C)s2)CC1` (centres unmarked) [3-P10, N-[2-(5-methyl-1,3-thiazol-2-yl)propyl]-1-(prop-2-enoyl)piperidine-4-carboxamide] is 110.439%. As for `CC(C)NC(=O)C(C#N)=Cc1ccc(-c2ccc([N+](=O)[O-])cc2)s1` [9-B16, 2-cyano-3-[5-(4-nitrophenyl)thiophen-2-yl]-N-(propan-2-yl)prop-2-enamide], the “% of control remaining” value is 77.7022%.

`CCCCNC(=O)C(C#N)=Cc1ccc(Cl)cc1` [9-H13, N-butyl-3-(4-chlorophenyl)-2-cyanoprop-2-enamide]: the “% of control remaining” value was determined as 78.9259%. For `N#CC(=Cc1ccc(N2CCCCC2)cc1)C(=O)NC1CC1` [8-O04, 2-cyano-N-cyclopropyl-3-[4-(piperidin-1-yl)phenyl]prop-2-enamide], the “% of control remaining” value was 71.8559%. For the compound `O=C(CCl)Cc1c(Cl)cccc1Cl` [10-K15, 1-chloro-3-(2,6-dichlorophenyl)propan-2-one], the “% of control remaining” value turned out to be 45.6653%.

Take `COc1ccc(C=C(C#N)C(=O)Nc2ccccc2C)cc1` [8-P07, 2-cyano-3-(4-methoxyphenyl)-N-(2-methylphenyl)prop-2-enamide]: the “% of control remaining” value is recorded as 78.3821%. Turning to `CC(Cl)C(=O)NCC(=O)Nc1ccc2c[nH]nc2c1` (centres unmarked) [7-N11, 2-chloro-N-{[(2H-indazol-6-yl)carbamoyl]methyl}propanamide], the “% of control remaining” value is on record as 79.9604%.

In the case of `COc1cccc(NC(=O)C(C#N)=Cc2ccc(O)cc2)c1` [8-O17, 2-cyano-3-(4-hydroxyphenyl)-N-(3-methoxyphenyl)prop-2-enamide], the “% of control remaining” value is reported as 71.584%.

For the compound `Cc1nc(CNC(=O)N2CCSSCC2)cs1` [10-O18, N-[(2-methyl-1,3-thiazol-4-yl)methyl]-1,2,5-dithiazepane-5-carboxamide], the “% of control remaining” value came out at 98.1882%. Consider `Cc1ccc(Sc2ccc(NC(=O)CCl)cc2)c(C)c1` [4-I03, 2-chloro-N-{4-[(2,4-dimethylphenyl)sulfanyl]phenyl}acetamide], for which the “% of control remaining” value is given as 72.1156%. `CC1CC(NC(=O)C(C)Cl)=NO1` (centres unmarked) [5-J21, 2-chloro-N-(5-methyl-4,5-dihydro-1,2-oxazol-3-yl)propanamide]: the “% of control remaining” value worked out at 102.89%. `C=CC(=O)NCCc1nnc(-c2ccccc2)o1` [3-J09, N-[2-(5-phenyl-1,3,4-oxadiazol-2-yl)ethyl]prop-2-enamide]: the “% of control remaining” value worked out at 91.3839%. For `CCn1c2ccccc2c2cc(NC(=O)CCl)ccc21` [4-D06, 2-chloro-N-(9-ethyl-9H-carbazol-3-yl)acetamide] the value was 102.308%. Consider `O=C(CCl)Cc1cccc(Cl)c1` [10-E17, 1-chloro-3-(3-chlorophenyl)propan-2-one], for which the “% of control remaining” value is 7.481%. On to `CC(Cl)C(=O)N(C)Cc1ccnn1C` (centres unmarked) [5-L17, 2-chloro-N-methyl-N-[(1-methyl-1H-pyrazol-5-yl)methyl]propanamide], for which the “% of control remaining” value stood at 96.3329%.

The values above are taken from publication PMC11995724, “Antibiotic target discovery by integrated phenotypic and activity-based profiling of electrophilic fragments” (Cell chemical biology, 2025).
